# Results from paper PMC4336329 (PLoS ONE, 2015).
# In all, about 310,000 compounds went through this assay and about 14,000 (4.5%) showed an effect of 50% or more. The effect is printed as a negative number. Some of the results follow.
# Biological target: human ether-à-go-go-related gene (hERG) potassium channel (human, UniProt Q12809)
# Test: primary screen, population patch clamp on CHO cells stably expressing hERG
# 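Note: peak tail current of the secondary pulse compared with the same well before compound.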
# human ether-à-go-go-related gene (hERG) potassium channel, sequence (Q12809 whole entry, looked up): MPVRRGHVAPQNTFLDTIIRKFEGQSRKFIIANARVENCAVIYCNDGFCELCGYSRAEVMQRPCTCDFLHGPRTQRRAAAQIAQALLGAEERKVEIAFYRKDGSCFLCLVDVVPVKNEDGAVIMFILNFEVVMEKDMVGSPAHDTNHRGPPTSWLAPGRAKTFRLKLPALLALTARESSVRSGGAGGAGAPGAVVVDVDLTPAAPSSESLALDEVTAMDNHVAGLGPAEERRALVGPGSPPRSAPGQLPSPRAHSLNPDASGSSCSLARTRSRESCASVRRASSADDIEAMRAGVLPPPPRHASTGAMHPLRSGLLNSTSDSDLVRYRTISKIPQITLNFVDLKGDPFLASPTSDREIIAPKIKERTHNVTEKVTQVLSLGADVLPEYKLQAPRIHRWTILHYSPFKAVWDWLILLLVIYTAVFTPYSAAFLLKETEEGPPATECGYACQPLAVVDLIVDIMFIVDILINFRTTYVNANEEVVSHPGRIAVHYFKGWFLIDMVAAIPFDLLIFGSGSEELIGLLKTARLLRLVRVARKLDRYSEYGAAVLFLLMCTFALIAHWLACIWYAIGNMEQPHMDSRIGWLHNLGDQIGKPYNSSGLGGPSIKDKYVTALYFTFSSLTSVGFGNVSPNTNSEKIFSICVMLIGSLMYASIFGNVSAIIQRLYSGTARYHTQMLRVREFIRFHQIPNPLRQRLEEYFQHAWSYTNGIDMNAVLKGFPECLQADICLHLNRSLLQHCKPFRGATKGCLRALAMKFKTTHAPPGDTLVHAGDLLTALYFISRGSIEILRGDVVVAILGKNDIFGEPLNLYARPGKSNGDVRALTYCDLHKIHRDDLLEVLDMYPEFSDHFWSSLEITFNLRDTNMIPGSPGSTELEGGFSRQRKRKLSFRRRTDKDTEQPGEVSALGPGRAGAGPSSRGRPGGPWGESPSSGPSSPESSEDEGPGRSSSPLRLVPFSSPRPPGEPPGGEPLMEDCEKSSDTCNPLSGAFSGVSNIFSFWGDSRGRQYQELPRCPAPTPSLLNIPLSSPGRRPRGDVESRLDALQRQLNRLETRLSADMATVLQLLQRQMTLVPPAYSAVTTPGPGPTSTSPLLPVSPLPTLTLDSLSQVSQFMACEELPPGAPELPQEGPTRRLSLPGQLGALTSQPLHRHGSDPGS
row,Structure (SMILES),"hERG current change (%, negative = inhibition) at 10uM [%]"
1,O=C(NCCc1ccc(F)cc1)NC12CC3CC(CC(C3)C1)C2,-13.4
2,CCOC(=O)c1ccccc1NC(=O)COC(=O)CCC1CCCC1,-18.1
3,O=C1C2CCCCC2C(=O)N1Cc1ccccc1 (centres unmarked),7.42
4,O=[N+]([O-])c1ccc(N2CCN(CCO)CC2)cc1NCc1ccco1,-32.2
5,COc1ccc(C)cc1S(=O)(=O)N1CCC(C(=O)NC2CCCC2)CC1,7.69
6,CN(C)S(=O)(=O)c1ccc(N2CCCC2)c(C(=O)N2CCN(c3ccc([N+](=O)[O-])cc3)CC2)c1,-76.7
7,Cc1cc(NC(=O)COC(=O)c2ccc(S(=O)(=O)N3CCCC3)cc2)no1,18.4
8,CCN(CC)CC.COc1ccc(OC)c(-n2c(=S)[nH]c3c(sc(=S)n3-c3ccccc3C)c2=O)c1,6.14
9,COc1cc(C(=O)NCC(=O)N2CC=C(c3ccccc3)CC2)cc(OC)c1OC,-51.2
10,CCOC(=O)C(=O)Nc1ccc(S(=O)(=O)N2CCOCC2)cc1OC,4.78
11,Cc1cccc(NC(=O)CSCC(=O)Nc2ccccc2N2CCCCC2)c1,-1.89
12,C=CCNC(=O)c1ccc(Cn2cc(C(F)(F)F)ccc2=O)cc1,0.469
13,CC1(C)C(=O)OC(c2ccccc2)C2(CCCC2)C1=O (centres unmarked),7.29
14,Cc1ccc(S(=O)(=O)CCC(=O)OCC(=O)c2c(C)[nH]c3ccccc23)cc1,-3.81
15,COc1ccc(S(=O)(=O)NNc2nc(C)cc(C)n2)cc1[N+](=O)[O-],10.3
16,Nc1nc(CSc2ncn(-c3ccccc3)n2)cs1,-10.2
17,CCCN1CCC(=NNC(=O)CSc2cc(C)c(Br)cc2C)CC1,-28
18,COCCn1c(C23CC4CC(CC(C4)C2)C3)n[nH]c1=S,-9.76
19,CC(C)Nc1nc(NC(N)=S)nc(NC(C)(C)C)n1,3.77

row,Structure (SMILES),"hERG current change (%, negative = inhibition) at 10uM [%]"
1,S=C(NCc1cccnc1)c1ccccc1,3.43
2,Cc1nnc2n1N=CC=C(C(C)(C)C)S2,-12.5
3,CCC(Oc1ccccc1)C(=O)N1CC(C)CC(C)C1 (centres unmarked),4.15
4,FC(F)(F)c1cccc(Oc2cc(C(F)(F)F)nc(-c3ccccn3)n2)c1,2.67
5,CCn1c(N)c(C(=O)NC)sc1=S,-4.1
6,O=C(C1CCCN(Cc2ccccc2[N+](=O)[O-])C1)N1CCCCC1.O=C(O)C(=O)O (centres unmarked),20.4
7,CN1C(=O)[C@@H]2[C@H](C1=O)[C@@H]1C(=O)Nc3ccccc3C(=O)N1[C@@H]2c1ccc(F)cc1,0.807
8,COc1ccc(-c2oc3ccc(-c4cc(OC)c(OC)c(OC)c4)cc3c2C#Cc2ccsc2)cc1,10.8
9,Nc1c(-c2ccc(F)cc2)cnc2ncnn12,13.7
10,CCN(CC)C(=O)COCc1cc(-c2ccc3c(c2)OCO3)on1,5.04
11,CCOc1ccc(C(C)=O)cc1COC(=O)c1cnc(Cl)c(Cl)c1,3.09
12,CCOC(=O)N1CCN(S(=O)(=O)c2ccc3c(c2)CCN3C(=O)C2CCC2)CC1,-6.37
13,Cc1cc(C)cc(CC2CC(=O)N(c3ccc4c(c3)OCCO4)C2=O)c1 (centres unmarked),-13
14,Cc1cc([N+](=O)[O-])ccc1NC(=S)NC1CCCC1,6.67
15,CC(C)(C)n1cnc2cc(NC(=O)c3ccccc3)ccc21,-9.28
16,CCn1cc(C(=O)OC)c(=O)c2cc(S(=O)(=O)N(C)C3CCCCC3)ccc21,-28.4
17,CCOc1cc(C2NC(=O)NC(c3ccccc3)=C2C(C)=O)ccc1OC(C)=O (centres unmarked),23.9
18,Cc1cc(C)cc(NC(=O)CSc2nnc(CNC(=O)c3ccco3)n2C)c1,-19.4
19,O=C1CCCc2c1cc(-c1ccccc1)n2-c1ccc(O)cc1,-4.94

row,Structure (SMILES),"hERG current change (%, negative = inhibition) at 10uM [%]"
1,COc1cc(CN2CCNC(=O)C2CC(=O)NC2CCCCC2)cc(OC)c1 (centres unmarked),5.43
2,CC(=O)N1c2ccc(S(=O)(=O)N3CCCC(C(=O)Nc4ccc(F)cc4)C3)cc2CC1C (centres unmarked),-21.2
3,COc1cccc(CN2CCNC(=O)C2CC(=O)N(C)CCc2ccccn2)c1OC (centres unmarked),26.9
4,CCOC(=O)N1CCC(NC(=O)Cn2c3c(c(-c4ccccc4Cl)cc2=O)CCC3)CC1,-8.61
5,O=C(NC(=S)Nc1ccc(S(=O)(=O)Nc2nccs2)cc1)c1ccccc1F,19.6
6,Cc1cc(C)nc(Nc2n[nH]c(-c3ccccc3C)n2)n1,-10.5
7,CCOC(=O)CCc1c(C)nc(SCc2ccc(C(=O)O)cc2)c(C#N)c1C,-11.7
8,CCOC(=O)C1CCN(c2c(NCCCN(CC)Cc3ccccc3)c(=O)c2=O)CC1,-9.32
9,CC(OC(=O)CNC(=O)c1cccs1)C(=O)Nc1ccc(S(N)(=O)=O)cc1 (centres unmarked),2.3
10,COc1ccc(NC(=O)CCN2CCN(S(=O)(=O)c3cc(Cl)ccc3Cl)CC2)cc1,-12.8
11,O=C(NCC1CCCCC1)c1cc(S(=O)(=O)N2CCOCC2)ccc1F,-2.95
12,CN(C)CCNc1cnn(-c2ccccc2)c(=O)c1Cl,14.2
13,Cc1ccc(NC(=O)CSc2cccc3cccnc23)c(C)c1,10.7
14,Nc1cccc(-n2cccc2)c1,18.5
15,CCCn1c2ccc(F)cc2c2nnc(SCCN3CCCCC3)nc21,-64.2
16,O=C(Cn1nc2n(c1=O)-c1ccccc1SC2)N/N=C/c1cccnc1,-14.3
17,COc1ccc(-c2ccc(CCC(=O)O)n2-c2ccc(O)cc2)cc1,13.3
18,CCC(C)(C(=O)NC1CCCC1)N(C(=O)c1cnccn1)c1ccccc1 (centres unmarked),2.05
